# Data: PubChem BioAssay AID485344 (National Center for Advancing Translational Sciences (NCATS), 2010)
# The campaign covered roughly 340,000 compounds. About 6,900 (2%) were called active. Rule as the data show it: active = inhibition above about 30%; inactive = below that, where a call was filed. This is a selection; strong and weak results do not stand in their true shares. Where no call is shown, the source filed none.
# Biological target: D(2) dopamine receptor (Homo sapiens) (UniProt P14416)
# Sequence of UniProt P14416 (P14416 whole entry, looked up): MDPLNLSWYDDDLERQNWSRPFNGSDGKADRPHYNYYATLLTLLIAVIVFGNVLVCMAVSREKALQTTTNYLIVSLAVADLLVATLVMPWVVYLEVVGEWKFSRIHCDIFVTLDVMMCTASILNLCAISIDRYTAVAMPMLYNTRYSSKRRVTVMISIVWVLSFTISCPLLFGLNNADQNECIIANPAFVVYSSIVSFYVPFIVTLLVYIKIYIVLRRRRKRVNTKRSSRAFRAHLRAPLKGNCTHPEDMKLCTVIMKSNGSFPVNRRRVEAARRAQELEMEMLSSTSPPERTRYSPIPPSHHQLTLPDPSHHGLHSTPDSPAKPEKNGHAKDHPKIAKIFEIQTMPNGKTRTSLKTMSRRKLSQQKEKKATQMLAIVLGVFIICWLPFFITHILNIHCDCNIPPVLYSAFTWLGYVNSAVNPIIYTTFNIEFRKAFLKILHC
# Assay: HTS Assay for Allosteric Antagonists of the Human D2 Dopamine Receptor: Primary Screen for Antagonists; also: 0% is about no effect
# Details: HEK293 TREx D2 cells, calcium flux, dopamine EC80; at 10 µM; stronger effect = higher value
# Summary of the method: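 Overnight-induced (tetracycline, 30 C) HEK293 T-REx cells carrying force-coupled D2 receive a no-wash calcium dye, then compound, then EC80 dopamine at 180 s; signals are read kinetically throughout.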
row,Structure (SMILES),inhibition
1,Cc1ccc(C(=O)c2oc3ccccc3c2NC(=O)c2cc(-c3ccccc3)on2)cc1,10.9%
2,Cc1ccc(-n2ncc3c(Nc4ccc5c(c4)OCCO5)ncnc32)cc1Cl,-21.5%
3,CCOC(=O)c1c(NC(=O)c2ccc(S(=O)(=O)N3CCCC(C)C3)cc2)sc2c1CC(C)(C)NC2(C)C (stereo unspecified),-4.02%
4,CCOCCCN1C(=O)CN(C2CCCCCC2)C(=O)C1c1ccc(OCC)c(OC)c1 (stereo unspecified),23.1%
5,CCOc1ccc(CCNC(=O)NCc2noc3ccc(C)cc23)cc1,1.78%
6,CCOCCc1nn2c(=O)cc(COC(=O)c3ccc(NC(=O)c4cccs4)cc3)nc2s1,5.5%
7,Cc1cccc(C(=O)N2CCc3cc(CNC(=O)c4ccco4)ccc32)c1,16.1%
8,CC(C)(C)OC(=O)N1CCNc2ccccc2C1,active: 30.5%
9,CCCn1c2ccccc2c2cnn(CC(=O)NCC3CCN(Cc4ccccc4C)CC3)c(=O)c21,20.2%
10,COc1ccccc1CNc1nccn(-c2ccc(F)cc2)c1=O,9.97%
11,COC(=O)CN1C(=O)C(O)(c2c(C)[nH]c3ccccc23)c2ccccc21 (stereo unspecified),-5.72%
12,Cc1csc2nc(COc3ccc(NC(=O)c4ccccc4F)cc3)cc(=O)n12,9.26%
13,COc1ccc(C(=O)Nc2nc(-c3ccc(Br)cc3)ns2)cc1,9.11%
14,O=C(Nc1cccc(Br)c1)c1cc(S(=O)(=O)N2CCCCC2)c[nH]1,7.75%
15,COc1ccc(-c2nc3n(n2)C(c2ccc(O)cc2)C(C(=O)Nc2cccnc2)=C(C)N3)cc1OC (stereo unspecified),7.1%
16,Cc1cc(S(=O)(=O)Nc2cc3c(cc2N2CCOCC2)n(C)c(=O)c(=O)n3C)ccc1F,-4.14%
17,CC(C)=C(NC(=O)c1ccccc1)C(=O)N/N=C(\C)c1ccccc1O,active: 62.7%
18,COc1ccc(-c2nc3ccccc3s2)cc1NC(=O)c1cc(OC)c(OC)c(OC)c1,0.0323%
19,COc1ccc(C(=O)N2CCN(C(=O)COc3ccccc3)CC2)cc1OC,8.57%
20,O=C(c1ccc2c(c1)N(Cc1ccccc1)C(=O)c1ccccc1S2(=O)=O)N1CCOCC1,11%
21,CCc1ccc(-n2c(N3CCN(c4ccc(F)cc4)CC3)nc3ccccc3c2=O)cc1,-3.49%
22,COc1ccc(NC(=O)C(NC(=O)/C=C\c2ccc3c(c2)OCO3)c2ccc(C)cc2)cc1 (stereo unspecified),-8.46%
23,O=C(NCCCN1CCN(c2cccc(Cl)c2)CC1)C1(S(=O)(=O)c2ccc(Cl)cc2)CC1,active: 34.6%
24,O=C(Nc1ccc2cn[nH]c2c1)c1ccc(S(=O)(=O)N2CCOCC2)cc1,active: 30.5%

row,Structure (SMILES),inhibition
1,O=C(Nc1ccc2oc(-c3cccnc3)nc2c1)c1ccccc1F,-4.63%
2,O=C(C[n+]1ccccc1)N/N=C/c1cc(Br)cc(Br)c1O,active: 31.7%
3,COc1ccc(CC(=O)N2CCc3c([nH]c4ccccc34)C2c2ccc(SC)cc2)cc1 (stereo unspecified),3.98%
4,COCCNC(=O)CCn1nc(-c2ccc(Cl)cc2)c2ccccc2c1=O,-5.46%
5,CC(=O)N1CCCc2cc(S(=O)(=O)Nc3ccc(Cl)cc3F)ccc21,-4.08%
6,COc1ccccc1CNC(=O)C(=O)NCC(c1cccnc1)N1CCN(c2ccccc2)CC1 (stereo unspecified),20%
7,Cc1noc(C)c1S(=O)(=O)N(CC(=O)NCc1ccccc1)c1ccc(C(C)C)cc1,5.32%
8,O=C(COCc1cc(-c2ccco2)on1)Nc1cc(Cl)ccc1O,-4.22%
9,COc1ccc(-c2nc(SCC(=O)NC3CCCC3)c(-c3ccc(F)cc3)[nH]2)cc1OC,27.4%
10,COc1ccc(C)cc1NC(=O)Cn1nc(N2CCN(c3ccccc3OC)CC2)ccc1=O,-6.99%
11,COc1ccccc1Cc1nc2ccccc2nc1SCC(=O)NCc1ccc(C)cc1,-11.3%
12,O=C(CN1CCN(C2CCCCC2)CC1)c1c[nH]c2ccccc12,active: 41.6%
13,COc1cccc(CNC(=O)c2nn(C)c3c2CSc2ccccc2-3)c1,17.9%
14,COc1ccc(NC(=O)c2cnc3cc(C)ccn3c2=O)c(OC)c1,-3.85%
15,COc1ccc(Cn2c(=O)n(-c3ccc(C)cc3)c(=O)c3c2c2cc(C)ccc2n3C)cc1,4.57%
16,Cc1ccc(C)c(CN2CCCN(Cc3ccccc3C)S2(=O)=O)c1,-8.01%
17,O=C(CN1C(=O)CCc2cc(Br)ccc21)Nc1ccc(OC(F)(F)F)cc1,19%
18,COc1ccccc1NC(=O)CSc1nnc2c(n1)[nH]c1ccccc12,20.9%
19,Cc1noc(-c2ccc(-c3noc(-c4ccc(Cl)cc4)n3)cc2)n1,-3.03%
20,OCCNCCOc1ccccc1-c1ccccc1,active: 66.4%
21,COc1ccc(Cc2nc(-c3ccc(Br)cc3)no2)cc1,active: 31.2%
22,Cc1ccc2nc(-c3ccc(Cl)c(NC(=O)COc4ccc([N+](=O)[O-])cc4)c3)oc2c1,-0.595%
23,CCOC(=O)c1c(C)oc2ccc(N(C(=O)c3ccncc3)S(=O)(=O)c3ccc(F)cc3C)cc12,15.2%
24,O=C(Cn1c(=O)n(-c2ccccc2)c(=O)c2c3c(sc21)CCC3)c1ccc(Br)cc1,0.215%

row,Structure (SMILES),inhibition
1,Cc1cccc(CS(=O)(=O)Cc2ccc(C(=O)NCc3ccc(F)cc3)o2)c1,-24.7%
2,COc1ccc(CCNC(=O)CN2C(=O)c3ccccc3S2(=O)=O)cc1,active: 34.5%
3,COc1ccccc1N1CCN(S(=O)(=O)c2cc(C(=O)Nc3ccc(Oc4ccccc4)cc3)ccc2F)CC1,18.4%
4,COc1cccc(NC(=O)c2cnc(SCC(=O)N3CCCc4ccccc43)n(C)c2=O)c1,20.4%
5,Cc1ccnc(NC(c2cccc(O)c2)c2ccc3ccc(C)nc3c2O)c1 (stereo unspecified),1.09%
6,Cc1ccc(CNC(=O)c2cc3sc(Cl)cc3n2C)cc1,-3.95%
7,COc1ccccc1Cn1c(C2CC(=O)N(c3ccccc3OC)C2)nc2ccccc21 (stereo unspecified),19.9%
8,O=C(CSC1=Nc2ccccc2C2=NC(Cc3ccccc3)C(=O)N12)Nc1cccc(Cl)c1 (stereo unspecified),2.79%
9,Cc1cc(S(=O)(=O)N2CCN(c3ccccn3)CC2)ccc1F,active: 33%
10,COc1ccccc1NC(=O)c1ccc(NC(=O)CN2CCN(C(=O)c3ccco3)CC2)cc1,active: 40.9%
11,CCc1ccc2occ(CC(=O)Nc3c(C(=O)c4ccccc4)oc4ccccc34)c2c1,3.56%
12,CCOC(=O)c1c(-c2ccccc2)oc2ccc(NS(=O)(=O)c3ccc(C)cc3)cc12,-17.1%
13,CCN1C(=O)c2ccccc2Sc2ccc(NC(=O)Nc3cc(C)cc(C)c3)cc21,22.8%
14,COc1ccc(Cl)c2sc(NC(=O)c3ccc(S(=O)(=O)N4CCCC4)cc3)nc12,-23.9%
15,COc1ccccc1NC(=O)CSCc1cc(=O)c2cccc(Cl)c2[nH]1,15.3%
16,CCOc1ccccc1CNS(=O)(=O)c1ccc(-c2cnc(C3CC3)o2)cc1,-14.6%
17,COc1ccc(S(=O)(=O)c2cn(C)c3cc(N4CCCCCC4)c(F)cc3c2=O)cc1,5.5%
18,COc1ccc(-c2noc(-c3nnn(-c4ccc(C)cc4C)c3C)n2)cc1,-5.37%
19,COc1ccc(NC(=O)CSC2=Nc3ccccc3C3=NC(CCC(=O)NC4CCCCC4)C(=O)N23)cc1Cl (stereo unspecified),-5.76%
20,Cc1ccc(-n2nc(CO)c(C(=O)NCc3cccnc3)n2)cc1C,5.42%
21,O=C(Nc1cc(F)ccc1F)C1CCN(C(=O)c2cnn(-c3ccccc3)c2-n2cccc2)CC1,2.39%
22,Cc1ccc(NC(=O)CSc2nncn2C)c(C)c1,0.381%
23,FC(F)(F)c1cccc(CN2CCC(c3cc(-c4cccs4)n[nH]3)CC2)c1,active: 83.9%
